# According to PMC10726135:
# This is one part of the list. At the low end of the ranking the order means little. Measured with an extract: partners may take part in the binding.
# Target: T1, HNF4alpha8 (COS-7 nuclear extract) (UniProt P41235-5)
# T1 sequence: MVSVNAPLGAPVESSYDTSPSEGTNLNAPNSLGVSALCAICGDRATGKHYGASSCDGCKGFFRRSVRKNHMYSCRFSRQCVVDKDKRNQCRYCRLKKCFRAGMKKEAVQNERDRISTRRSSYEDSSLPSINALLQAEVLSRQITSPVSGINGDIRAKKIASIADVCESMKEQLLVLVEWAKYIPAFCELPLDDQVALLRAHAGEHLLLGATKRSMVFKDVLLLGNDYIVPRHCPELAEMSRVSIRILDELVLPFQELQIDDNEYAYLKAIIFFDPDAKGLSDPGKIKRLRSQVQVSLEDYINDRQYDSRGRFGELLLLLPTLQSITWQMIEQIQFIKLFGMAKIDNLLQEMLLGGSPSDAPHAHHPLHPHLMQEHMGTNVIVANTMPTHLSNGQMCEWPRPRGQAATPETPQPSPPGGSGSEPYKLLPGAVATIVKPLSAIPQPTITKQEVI
# Experiment: protein-binding microarray
# Conditions: COS-7 nuclear extract on double-stranded Agilent 4x180k PBM; binding buffer, salt, pH and temperature not given; high values mean tight binding; double strand, one strand shown; sequences stand for … in …GCCTAGGGAGATTAGAGTATCGGTCGA
row,Sequence,binding signal (log2 normalized intensity)
1,AGGGGGGTGGGCACCCCTGCCCCCATGTTG,3.2
2,AGCAGGGGGCGCAGAAGGGATGGGAACCGA,-1.18
3,GCAGCCCAGCAAAGAGGGTCAAAGCCCAGG,0.556
4,AGCCAAGATTACAGCCACATGCTAACACAC,-1.34
5,AAACTGTTATCTCTCAACTCAGTGAGGGCT,-1.3
6,TTCATCCTGAGAGGGCTCAAGGTCTGCATG,1.65
7,TAATGATTTGTAAATCTCTAGTCCCAGCCT,-1.24
8,GCCGGTTCCCGCCCAAGGAGACAGGCTTTG,-1.24
9,AAACCCACGCCCACCCTATTGATGCAAGGA,2.17
10,GCACGCACACCGAGCACGGTGCAGGGAGGA,-1.39
11,CGCCGCATCTACCAGCGTAATTCTGGCTCT,-1.31
12,CTTGTCTGGCCTTCCTGGCCCTAGCTGGGT,0.862
13,CCACATACAAGTCACTCTTCATTTCCCTCA,-1.21
14,AAAGTCTTTCTCTTTCAAGATAACAAGGCA,0.808
15,TGCTGGAATGAAGACTCACATCTATCTCCC,-0.571
16,TACCAGGAATATTGCCCCCTAATGGTATTT,3.76
17,TTGGCCCTCAGCCCAATGTGGTAGGATGGC,0.0591
18,ATAACATGAGGTAGAGGGACACTGATAACA,-1.44
19,GTTGTACCTGACTAAAACCTGCTGCAGGAG,-1.02
20,ATCCTTCAAAGCTGAGAATTGGGAGGGCTT,-1.4
21,ATTTCACAGCAACCTCAGACCTCTCCCGCC,1.3
22,ATTATTGCCTGGCATCTAACCTTCGTCCTT,4.45
23,TAGCCTCAAATTCCTGGGCTCAAACAATCC,-1.36
24,CCTTCAGTTCTTATCTCGTACTTCTGTTGT,2.18
25,GAGTCTCCTGGGTAATCACCAAACTTCACA,-1.32

row,Sequence,binding signal (log2 normalized intensity)
1,GAAAGGATCTCACCCAAACCATCCCAGGCA,3.1
2,TTGAAGAAATGGTGGACTTTGTAGCTCAAA,4.79
3,GACTTCCATTGTGTTGCAGATGATCAAGAG,1.19
4,ACTGTAAGATCAAGATTAAGAAGAGCAGCT,-1.32
5,CCGACCCGCCCGACTACAACAGCCTTGCAG,-0.809
6,TGTACTAATGATTTGTAAATCTCTAGTCCC,-1.16
7,CTCAACTCCCTCTGAAGGGAGGGCCAAGCC,-1.24
8,ATCTTCCTCCCCCCTTGGCTACATGTTTGT,3.73
9,GTGCTGACCTCCTGTCTCATCCTGTGACCA,2.18
10,GGGTTGGCATGCATATGAGTAATGTGAAGA,0.748
11,TCCTTATTTATCTTCCAGCGGGTGCTTAAA,0.716
12,CTCCTGGACTTTGGTCTCATGGGCCTAAAC,5.27
13,GGGGAAGCTGTTGGGCGCCGGAACTGGTCC,-1.3
14,TGTTTGTAAACTGTCATGGTGCTGGCGGGA,0.745
15,CATATCTGGAATTTCAAAGGGAGCATATGT,1.31
16,GTGGCAGGCACTTAGCAAATATTTACTGAA,-0.877
17,AATCTTCATTCCTCAAATGCTCCTTTGAAC,3.03
18,GAGTGCTTTCATCTTTGCGGTGAGCATTTG,1.03
19,AGGGAGGCAGCCACCTAGGCCGGTCAAGTC,-1.29
20,GCATGACTTGTTATCACCTGCTGGAATGTT,1.88
21,TCAAATCCCCTAGGTGATTAGAAGATAGCT,-1.28
22,CTTATACGTGGAAGAAACTCATCTCCAGAT,-1.27
23,TCCAGCCAGGTTGCATCAGCTGGGCTCGGC,-1.45
24,TGCCTGGGTCCTGGGAGCAAACCCCAGCTG,-1.26
25,ATGATGAAAGCAATGTTTGAGGAAGATTAG,-1.24

row,Sequence,binding signal (log2 normalized intensity)
1,AACTAAAAGTATCTAAGGGCCTAGAAGAGT,-1.24
2,CCCCTTCTTAACATCAGAAGTTGGACTTTG,8.31
3,CTGCGTTTTTTCCGAACGCCAGCAGCAGGG,-1.32
4,CTATAGTTATCTCTGCTGATAGCATAAAGC,0.212
5,CGCGCGTGTGGATACGATGACATCATCTGT,0.525
6,ATTTCAAACCTTTGCCCCACTCTCCTCTGC,3.78
7,GTAAATATGACCTTTGCTTTTCAAGATTTT,3.79
8,AGACTTTGGACCTGGCCCTCTGGGTTGGAA,5.58
9,CTGGAGTCCAAAGGTCAGCAAGCCTGGAGT,7.44
10,GATCAGAAATGTTTGGAATTCCACAGCAGA,-0.813
11,CAGTGGGCCCAGAGCACAACCTTTGGCCGT,5.28
12,ATGATTTCAGCTTATAAATCTTCAACTGGA,-0.973
13,CCTGTACCTAGAATTCTTTCACTCCCTTTT,0.592
14,CCCTCCATGTAACCCCTTTTCAATTCCTTA,1.77
15,GGAGGAAATCTCTCTGGTCAAAGGGTAAAG,3.39
16,GTCCTTCCAAAGTCCTTCTAAAGCAAATTT,1.86
17,CAAGAAGTTCCAAAGGCCAGTGTGGCTAAC,1.3
18,AAGGAAGGTGCTTATCAGAGCAAGAGATGG,-1.12
19,ACAGCAGTGGACTTTGACCTTGGCACTGAA,9.68
20,GTCCTTGATAAGCAAGATGACTTTGGTCTA,1.82
21,CATCTACCAGCGTAATTCTGGCTCTTTGAG,-0.849
22,GCCTAGGAAAACCAGAGACCTTTGTTCACT,3.69
23,GCATCTCATTACTGACAGAGATCAAAAACC,-0.109
24,CCTGTACACGGTTCTTGACCTGTGATAAGA,2.98
25,GATCCCTTATTTGCATGAAGCACAAAGGTT,3.17

row,Sequence,binding signal (log2 normalized intensity)
1,GCGTGGTGGCCTGTGCCTGTAGTCCCAGCG,-1.3
2,CAGAGGAGATCAGAGGAGGCACTTGTCTCA,-1.33
3,TGTGCTGAAAAGACTTCACAATCAATTCCA,-1.35
4,TGGTTTACATTCTTAGAAGATAAAGTGTCT,0.378
5,CTCAAGTGACCTTTGACCTCTGGCCTTTGC,10.3
6,GCTGGTGGGTGGGGGAAGTGTGGTCAAGGG,1.35
7,ATTTAAGCTTGAGACAAAGGAAACTGATTG,-1.25
8,TACATTGGACAACTGTACTTTGGACTGGGG,6.69
9,CAGAAAAATGGAGCAGCTCTGTATTGAGAT,-1.16
10,ATGTCTCAAGATATCTATATGTTTACATAT,1.75
11,GGACAGTGGTCTTTATGACTTGGGTGCACC,2.3
12,CCCAGATGCACGTGCTCCAGGAGGGGAGGA,-1.25
13,AAGACTGAGCAGCTGGAGGGGGACTGGAAG,-1.31
14,ACAGTAGGCTCTAGATGTCTCAGTAGATAA,-1.27
15,ATTTCATAGACTGTCCCTCAGTGTGGGACT,-0.161
16,CCCTTCCTCTGCAGCCGCCCTTTTGCCTCC,2.92
17,AACAAAACACGGACTTTGAAGCTCCAAGAT,1.81
18,CAGCCTGATACCAGATCCTTCAGCCAAGGA,-1.36
19,GAGTTGTCATCATAAAAGTTCTCATGCTAA,-0.91
20,CTAGAGGCCTTCTCTGTGAACACACCGTAG,-1.29
21,AGGCTGTTCTGATGCCATTCCCTGCAGGTG,-1.24
22,ATTGTTAGCCTAAACTATCTGGTGCGGTCC,0.59
23,GCCCTTCCCTAACCCTTCAAGGGCCACTCA,-0.669
24,GCAAGACGCCGTCTCAAAAAAAAAAAAAAG,-1.3
25,GCTTCCCTTTCTACTGCCAGCCAGGGCCAC,-1.02

row,Sequence,binding signal (log2 normalized intensity)
1,GGCCATTCCAGTTTTGGAGAGGGGAACGAT,-1.19
2,CAATATTTGTTAAGTACCCACTATAGATTG,0.68
3,TGTGATAAGGTGTTGAAAAGAGCATAAGGT,0.243
4,AGAAAAAGAAAAGCCTTGTGGCAGTGAGAA,-1.36
5,TCCATATTTGGAAGTAAGAACCCCACTATT,2.85
6,CCAAATTCTCCCAGGCCATACAGATACCCA,-1.13
7,AACCACCTATTCTGAAGATTGCTAGCTGAG,-1.37
8,TGGAACAAGGTCCCATGCACTGGCCTGGAT,-1.01
9,CCCGGACCAGGCCGGGTCACGTGGGTCCAG,3.63
10,AAGCACATCCTGTTCTAGCTCGGGGGCCCT,-1.28
11,TTAGAGAAAGGGTCAAAGGTTAAGCCATTG,6.33
12,TGCTTCTTGGCCTCTTTGTTTACACTGTGA,1.68
13,ACAGGGAAAGTATGGGTCAGCCCTGCCATC,-0.943
14,TGTTATTTGCTGAGGTGGGGGAGGTAGGTA,-1.3
15,TGCGACTGAGCCCTAAGAAATCTCCAAGTC,-1.29
16,CTAGGATCACGCCATGAGTTGGGGACAAAG,-1.24
17,AGGATTCTTTATCTTAGCTTCAGCTTTGCT,-1.35
18,TGTCTGGCTAAGACCTTTAGTTAGCCTTTC,1.16
19,AGAACGTTCCAAACCTACACAGACCCTCTT,-0.978
20,GCCCCATGCTGATAAGGGCCACAGATGGCC,0.367
21,TCAAAGGGACAGCACTGGCATGCAGCAGGG,-1.29
22,ACCTTTGGGCTCTGACCCGAAGGGTAGGAG,0.687
23,AGTGATAAGGAACCTAGGAAATCAAAAACC,-0.896
24,GTAAATGATTCTCTTTGGAAATTGATTGGG,-0.0269
25,TGATAGCATCCCAGTAGAAAAAAAAATGGG,-1.29

row,Sequence,binding signal (log2 normalized intensity)
1,AAATCAGCCAGTGATTCAACTCTGACCCAT,3.6
2,TGTTCCCGTCCGTGCGGTCGGGCGCGCGGG,-1.19
3,TGAAAGCCAAGGCAGATATGAAAGAGCCAT,-1.52
4,TTCCAGGGTTACCGGCAGAGAGAAGCCACT,-1.24
5,CTGCCAAATATTGGGCAATGCTAGGTCTTT,-0.524
6,GGTGGACAAGACTGGTTTTTCAGATCCCTC,-1.22
7,GCATGAGGCCCCTTGCAATGCTGGAGGGAC,-1.37
8,CCGCTGGCGCCATCCAAAGGCCCGAGGGCC,-1.36
9,AAGTCTTTCCCTGCCAGTTCCATGTAATCC,0.923
10,CCAAGTGAGTAAGGAAAGCCACTTCCTGGC,-1.4
11,CTGGTGCAGTCCAAGAGGCCCAGGTAAACA,-1.44
12,GCAAACAGCACTCTCTGATTACACAGGCCT,-1.25
13,AGCTACTAGCAAATCTGCCCAACCTTTGCC,2.1
14,CTGGGAAGAGAAGGTGAACTTGCTCAACCT,-1.29
15,CTACCGTACCTAGGACAAAGCAAACACTCA,-1.31
16,GATGTTTGCCCATGATCATATGGACTATGT,3.89
17,GTAACCTGCAAAGAGCAAACTCCAGTTGTA,-0.82
18,AGCTCCACAGCTGGACTTTGGCTGCAAAAT,4.98
19,ATTGTCAGGCCAGTAGGTCAGTGTCCCTCT,1.32
20,GCTAACAGTAAAACTGAGATCTAAGCGATA,-1.36
